The campaign covered roughly 110,000 compounds. About 230 (0.21%) showed an effect of 50% or more. The list shows a part of the results.
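Further: 30 min substrate incubation versus DMSO and 10 µM JCP410 controls.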

This assay deals with DPAP1 (Plasmodium falciparum, UniProt Q8IIJ9). Kind of assay: primary screen, percent inhibition; read by cleavage of a fluorogenic dipeptide substrate; higher = more effect of the substance. On the set-up: species or system P. falciparum D10 trophozoite lysates; single well.
Chain of DPAP1 (Q8IIJ9 whole entry, looked up): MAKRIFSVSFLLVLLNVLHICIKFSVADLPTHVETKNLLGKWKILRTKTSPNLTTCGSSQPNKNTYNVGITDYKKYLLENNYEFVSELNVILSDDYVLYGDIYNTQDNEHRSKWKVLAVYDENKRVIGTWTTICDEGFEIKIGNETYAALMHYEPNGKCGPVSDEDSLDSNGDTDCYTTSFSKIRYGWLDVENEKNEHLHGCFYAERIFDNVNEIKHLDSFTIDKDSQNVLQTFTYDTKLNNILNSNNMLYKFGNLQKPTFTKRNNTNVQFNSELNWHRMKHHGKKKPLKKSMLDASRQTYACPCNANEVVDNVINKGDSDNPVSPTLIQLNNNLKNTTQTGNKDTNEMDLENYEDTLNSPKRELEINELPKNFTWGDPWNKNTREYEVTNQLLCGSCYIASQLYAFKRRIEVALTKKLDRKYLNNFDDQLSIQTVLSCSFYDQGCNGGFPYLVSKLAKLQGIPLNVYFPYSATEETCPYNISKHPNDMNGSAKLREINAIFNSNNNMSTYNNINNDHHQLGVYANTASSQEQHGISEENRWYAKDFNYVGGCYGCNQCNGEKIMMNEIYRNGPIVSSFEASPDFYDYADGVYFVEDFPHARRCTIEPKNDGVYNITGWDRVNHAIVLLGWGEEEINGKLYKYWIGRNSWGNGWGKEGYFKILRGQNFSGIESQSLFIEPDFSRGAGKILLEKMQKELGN
In the case of `O=C(CN(c1ccc(Br)cc1)S(=O)(=O)c1ccccc1)NC1CC2CCC1C2` (stereo not shown), the “% Inhibition @ 10 uM” value is -2.8%. As to `S=C(c1ccc(-c2cc(Cl)ccc2Cl)o1)N1CCOCC1`, the “% Inhibition @ 10 uM” value was -5.51%. Consider `CN(C)CN1C(=O)C(=O)c2ccccc21`, for which the “% Inhibition @ 10 uM” value is on record as -4.61%. Take `O=C(c1ccc(CS(=O)Cc2ccc(Cl)cc2)o1)N1CCN(c2ccccn2)CC1` (stereo not shown): the “% Inhibition @ 10 uM” value is -2.44%. Turning to `O=C1CC(c2ccccc2)CC(=O)C1=CNCCN1CCOCC1` (stereo not shown), the “% Inhibition @ 10 uM” value is recorded as 3.25%. Turning to `Cc1cc(C)c2c(c1)C1(C(=O)N2)C(C#N)=C(N)Oc2c1c(C)nn2-c1ccccc1` (stereo not shown), the “% Inhibition @ 10 uM” value is listed as -5.34%.

On to `Cc1cc(Cl)ccc1Nc1ncccc1C(N)=O`, for which the “% Inhibition @ 10 uM” value was -3.56%. Consider `Cc1nc2nc(NC(=O)C(c3ccccc3)c3ccccc3)nn2c(C)c1Cl`, for which the “% Inhibition @ 10 uM” value came to 2.05%. Regarding `COc1ccc2nc3c(O)n(CCC(=O)O)c(SCC(N)=O)nc-3c2c1`, the “% Inhibition @ 10 uM” value came out at 9.02%. As for `CCOC(=O)C1C(C)=CC(=O)OC1C` (stereo not shown), the “% Inhibition @ 10 uM” value is -7.11%. In the case of `CCCN1CCN(C(=O)c2noc3c2COc2ccc(C)cc2-3)CC1`, the “% Inhibition @ 10 uM” value is reported as -0.74%. In the case of `COc1ccc(N2C(=O)NC(=O)/C(=C/c3cc4c(cc3Cl)OCO4)C2=O)cc1`, the “% Inhibition @ 10 uM” value was 7.48%.

For `Cc1oc2ccc(O)c(CN3CCCCC3C)c2c1C(=O)NCc1ccccc1` (stereo not shown), the “% Inhibition @ 10 uM” value is reported as -1.22%.

Regarding `COc1cc(C2CC(=O)NC3=C2C(=O)CC(c2ccc(F)cc2)C3)ccc1O` (stereo not shown), the “% Inhibition @ 10 uM” value is listed as -2.24%. In the case of `COc1cc(C2NCCc3c2[nH]c2ccccc32)ccc1O` (stereo not shown), the “% Inhibition @ 10 uM” value was -11.1%. Consider `Cn1nnc2c(NC3CCOC(C)(C)C3)nc(Cc3ccc(Cl)cc3Cl)nc21` (stereo not shown), for which the “% Inhibition @ 10 uM” value amounted to 3.51%. `N#CC1=C2SCC(O)(c3ccccc3)N2C(=O)CC1c1ccccc1Cl` (stereo not shown): the “% Inhibition @ 10 uM” value came to 2.34%. For the molecule `O=c1/c(=C/c2cccs2)sc2ncnn12`, the “% Inhibition @ 10 uM” value is listed as -3.33%.

As for `Cc1ccc(-c2c(CN3CCC(N4CCCCC4)CC3)csc2C)cc1`, the “% Inhibition @ 10 uM” value turned out to be 9.5%. In the case of `CC(C)(C)c1ccc(C(=O)N[C@H](C(=O)NCC#N)[C@@H]2CCc3ccccc32)cc1`, the “% Inhibition @ 10 uM” value is given as 1.71%.

For the molecule `CCOc1cc(C2C(C#N)=C(N)Oc3[nH]nc(-c4ccccc4Cl)c32)ccc1O` (stereo not shown), the “% Inhibition @ 10 uM” value was -2.45%. On to `COc1ccc(CNc2sc(S(C)(=O)=O)nc2S(=O)(=O)c2ccc(C)cc2)cc1`, for which the “% Inhibition @ 10 uM” value is listed as -0.522%. Consider `Cc1cc(C)n(-c2nnc(C)n2/N=C/c2cc(Cl)ccc2F)n1`, for which the “% Inhibition @ 10 uM” value was 5.89%. In the case of `C=CC#CC1(O)CC(C)N(C)CC1C` (stereo not shown) it was -3.5%; in that of `CCOC(=O)C1CCCCN1Cc1ccoc1` (stereo not shown), -0.969%; in that of `CSc1ccccc1-c1ccc(C(=O)N[C@@H](CC(C)C)C(=O)NCC#N)cc1`, -3.48%. Consider `CCOC(=O)c1c(NC(=O)c2ccc(OCc3cccc(F)c3)c(OC)c2)sc(C)c1C`, for which the “% Inhibition @ 10 uM” value is 0.4%. For the molecule `O=C1c2ccccc2C(=O)C1(c1ccccc1)N1CCN(Cc2ccccc2)CC1`, the “% Inhibition @ 10 uM” value was -1.55%.

On to `COc1cc(C(c2sc3nc(C)nn3c2O)N2CCc3ccccc3C2)cc(OC)c1OC` (stereo not shown), for which the “% Inhibition @ 10 uM” value is given as -6.62%.

With `C=CCOc1c(CNc2ccc(C(=O)O)cc2)cccc1OC`, the “% Inhibition @ 10 uM” value is reported as -3.25%. For the molecule `COc1ccc(C(=O)O)cc1COc1ccc(Cl)c(C)c1`, the “% Inhibition @ 10 uM” value was -5.13%. As for `N#CC1=C(SCC(=O)Nc2ccc(Br)cc2)NC(=O)CC1c1cccc(O)c1` (stereo not shown), the “% Inhibition @ 10 uM” value was -1.64%. Then `CCc1ccc(/C=C2\C(=N)N3N=C(S(C)(=O)=O)SC3=NC2=O)cc1`, with -3.35%; and `CCOCCCNC(=O)c1cc2c(Cl)nc3ccccc3c2s1`, with 4.15%; and `CCCCN(C)CCCNC(=O)Cn1cccc1C(=O)c1ccccc1`, with -4.04%. Then `COc1cccc(C(=O)NC(Cc2ccccc2)c2ccc3c(c2)OCCCO3)c1` (stereo not shown), with 0.475%; and `CC(=O)N1CCC2(CC1)OC(=O)C(C)=C2C(=O)NCCCN1CCCCC1C` (stereo not shown), with -3.25%; and `COc1cc(C2C(C#N)=C(N)Oc3[nH]nc(-c4ccccc4)c32)cc(OC)c1OC` (stereo not shown), with -0.366%. In the case of `COC(=O)C1=CN(C)C=C(C(=O)OC)C1c1ccc(OCc2ccccc2)c(OC)c1` it was -1.48%; in that of `O=C(NCCc1ccc(Cl)cc1)C(=O)c1c[nH]c2ccccc12`, 2.7%. With `c1ccc(CCc2nn3c(C4COc5ccccc5O4)nnc3s2)cc1` (stereo not shown), the “% Inhibition @ 10 uM” value is 1.25%.

Turning to `CCOc1ccc(C2C(C(=O)O)c3ccccc3C(=O)N2CCN2CCOCC2)cc1` (stereo not shown), the “% Inhibition @ 10 uM” value was determined as 2.73%. With `O=C(O)Cn1ccnc1C(O)c1ccccc1` (stereo not shown), the “% Inhibition @ 10 uM” value is -2.59%. Then `Cc1ccc(-c2nnc(SCC(=O)N3CCCCC3C)o2)cc1C` (stereo not shown), with 2.97%; and `Cc1[nH]c2ccc(C(=O)NCCc3ccc(Cl)cc3)cc2c1C`, with -1.01%; and `OC(C#CCN1CCOCC1)(c1ccccc1)c1ccccc1`, with -1.76%. Turning to `O=C(CSc1nc2nncc-2c(O)n1-c1ccccc1Cl)N1CCCC1`, the “% Inhibition @ 10 uM” value is listed as -0.406%.

For `O=C(C(c1ccccc1)c1ccccc1)N1CCCCCC1`, the “% Inhibition @ 10 uM” value came out at 2.23%. Then `CCCOc1ccc(CNC(=O)Cn2nc(CC)n3c(cc4sc(C)cc43)c2=O)cc1`, with -1.7%. Turning to `Cn1ncc2c(NCCC(c3ccccc3)c3ccccc3)ncnc21`, the “% Inhibition @ 10 uM” value is on record as 2.4%. In the case of `CS(=O)(=O)N1CCN(c2ccc(NC(=O)c3sc4ccccc4c3Cl)cc2)CC1` it was -3.16%; in that of `COc1ccc(CCNC(=O)C2CCN(S(=O)(=O)c3ccc(Br)cc3)CC2)cc1`, -1.92%; in that of `COc1ccc(Br)cc1CN1CCN(c2ccccc2)CC1`, 1.55%.

`Cc1c(NC(=O)Nc2ccc(Cl)cn2)sc2nc3n(c(=O)c12)CCC(C)CC3` (stereo not shown): the “% Inhibition @ 10 uM” value was found to be 6.35%. Regarding `CCSc1ccsc1C1C(C#N)=C(N)N(c2cccnc2)C2=C1C(=O)CC(C)(C)C2` (stereo not shown), the “% Inhibition @ 10 uM” value is 2.17%. In the case of `COc1cccc(CN2CCc3cc(OC)c(OC)cc3C2)c1` it was 1.27%; in that of `CC(C)(C)c1cc(-c2ccc(Cl)cc2)n(-c2cccc3cccnc23)n1`, 5.48%; in that of `[O-][n+]1cc(-c2ccc(Cl)cc2)[n+]([O-])c2c1CCCC2`, 1.84%. As for `Cc1ccc(OCC(=O)Nc2ccc(C(=O)O)cc2)cc1C`, the “% Inhibition @ 10 uM” value is listed as -3.16%.

For the molecule `CCOCCc1nnc(NC(=O)c2cccc(OCC)c2)s1`, the “% Inhibition @ 10 uM” value is listed as -2.13%. With `CCn1c(Oc2cccc3cccnc23)nc2c1c(=O)n(C)c(=O)n2C`, the “% Inhibition @ 10 uM” value is -3.75%.

Regarding `Brc1ccc2c(c1)C1CC(c3ccccc3)=NN1C(c1cccnc1)O2` (stereo not shown), the “% Inhibition @ 10 uM” value was 5.5%. On to `CC(CCc1ccccc1)NCCCN(C)C` (stereo not shown), for which the “% Inhibition @ 10 uM” value is recorded as -1.21%. As to `S=C1NCN(CCc2ccccc2)CN1C1CCCCC1`, the “% Inhibition @ 10 uM” value was -1.92%. Then `CC(=O)Nc1cc2c(cc1NC(C)=O)n(C)c(=O)n2C`, with -2.22%; and `Cc1cccc(-c2noc(CN(C(=O)/C=C/c3ccccc3Cl)C(C)C)n2)c1`, with -3.68%; and `CN1CCN(C(=O)COc2ccccc2C#N)CC1`, with -1.7%. As to `Cc1onc(-c2ccccc2Cl)c1C(=O)N(Cc1nc(-c2ccccc2)no1)C(C)C`, the “% Inhibition @ 10 uM” value was -3.37%. On to `CCN(CC)S(=O)(=O)c1cccc(S(=O)(=O)c2ccc(Cl)c(Cl)c2)c1`, for which the “% Inhibition @ 10 uM” value was found to be 3.25%. On to `CCNc1ncnc2onc(C)c12`, for which the “% Inhibition @ 10 uM” value was determined as 3.93%. Then `CN(C)c1ccc(CN2CCN(c3ccc(F)cc3)CC2)cc1`, with -1.77%; and `COc1cc(C2C(C#N)=C(N)OC3=C2C(=O)CC(C)(C)C3)ccc1OCc1cccc(Cl)c1` (stereo not shown), with 0.169%; and `Cc1cc2c(n1-c1ccc(C(=O)NCCCN3CCC(N4CCCCC4)CC3)cc1)CCCC2`, with 1.21%. For the molecule `COc1ccc(CNC(=O)c2ccccc2C(=O)O)cc1`, the “% Inhibition @ 10 uM” value stood at 1.94%. On to `COCCNC(=O)CSCc1nc(-c2ccc(Cl)cc2)oc1C`, for which the “% Inhibition @ 10 uM” value is 3.99%. For the molecule `CC1(C)Cc2c(sc(NC(=O)c3ccccc3)c2C#N)CO1`, the “% Inhibition @ 10 uM” value is -2.54%. In the case of `COc1ccc(N(C(=O)c2ccccc2F)c2ccccc2)cc1` it was 0.0345%; in that of `O=C1CN(Cc2ccccc2)CC(=O)N1`, -5.47%; in that of `CSc1ncc2c(O)nccc2n1`, -8.63%.

Take `CC(C)C1C(c2ccccc2)NC(c2ccccc2)CC1(O)C#Cc1ccccc1` (stereo not shown): the “% Inhibition @ 10 uM” value worked out at 3.65%.

For `COC(=O)c1cc(S(=O)(=O)NCc2ccc(OC)cc2)c[nH]1`, the “% Inhibition @ 10 uM” value was -0.255%. In the case of `CO/C(O)=C1/C(C)=NC(=S)NC1/C=C/c1ccccc1` (stereo not shown), the “% Inhibition @ 10 uM” value was determined as 0.219%.

Take `Cc1[nH]nc(Nc2cccc(C(=O)O)c2)c1[N+](=O)[O-]`: the “% Inhibition @ 10 uM” value is reported as -0.254%. On to `COc1ccccc1C(=O)N/C(=C\c1cn(S(=O)(=O)N(C)C)c2ccccc12)C(=O)N1CCCC1`, for which the “% Inhibition @ 10 uM” value is reported as -1.96%.

`O=C1N(CN2CCOCC2)c2ccccc2C12OCCCO2`: the “% Inhibition @ 10 uM” value is given as 2.69%.

For the molecule `CCN(CC)S(=O)(=O)c1ccc(NC(=O)c2ccc(OC)c(Br)c2)cc1`, the “% Inhibition @ 10 uM” value was -0.95%. Regarding `CC1CC(=O)C2CCCCC2S1(=O)=O` (stereo not shown), the “% Inhibition @ 10 uM” value was found to be 2.38%. Then `O=C(CN(Cc1ccc(Cl)cc1)S(=O)(=O)c1ccccc1)Nc1ccc(F)cc1`, with 8.87%; and `NC(=O)/C(=C/c1ccccc1)NC(=O)c1ccco1`, with -3.83%; and `CS(=O)(=O)N(CC(=O)O)c1ccc(C23CC4CC(CC(C4)C2)C3)cc1`, with 8.19%. For `CC(=O)N(C)c1ccc(NC(=O)c2cccc(Br)c2)cc1`, the “% Inhibition @ 10 uM” value was -3.71%. Then `C=CCN(C(C)C(=O)O)S(=O)(=O)c1ccc(C)cc1` (stereo not shown), with -1.91%; and `CCCCn1c(CN2CCN(CC)CC2)nc2c1c(=O)n(C)c(=O)n2C`, with -0.499%. With `CC(=O)c1cc(F)c(N2CCC(C)CC2)cc1C`, the “% Inhibition @ 10 uM” value is recorded as -2.2%.

`Cc1ccccc1NC(=O)Cn1c(-c2nonc2N)nc2ccccc21`: the “% Inhibition @ 10 uM” value is 19.8%. In the case of `CCn1c(COc2cccc(OC)c2)nc2ccccc21` it was -1.15%. Consider `Cc1ccc(-c2cc(C(=O)NCc3cnn(C)c3)c3ccccc3n2)cc1C`, for which the “% Inhibition @ 10 uM” value is recorded as -2.77%.

Consider `CC(C)(C)c1ccc(S(=O)(=O)NCC(=O)N2CCN(C(=O)c3ccco3)CC2)cc1`, for which the “% Inhibition @ 10 uM” value was 0.361%. With `CCOc1ccc(NC(=O)CSc2nc3sc(C)c(C)c3c(=O)n2C)cc1`, the “% Inhibition @ 10 uM” value is reported as 0.746%.

Turning to `Cc1ccccc1OCCCOc1ccc(/C=C2/C(=N)N3C=CSC3=NC2=O)cc1`, the “% Inhibition @ 10 uM” value is given as 1.84%.

(Values after paper PMC6919601, “Identification of Plasmodium dipeptidyl aminopeptidase allosteric inhibitors by high throughput screening” (PLoS ONE, 2019).)
